# Laboratory results as given in the supplement of paper PMC4604168 (melanoma cell lines).
# Some of the results follow. Single values are uncertain, as repeats are few or missing.
# How the values were obtained:
# Assay in all cases: cell count relative to DMSO control; melanoma cells; higher = more viable cells
# Conditions in all cases: library dose: standard library concentration; 72 h
# [1] = tested on: G361
# [2] = tested on: IPC-298
# [3] = tested on: IST-MEL1
# [4] = tested on: LB2518-MEL
# [5] = tested on: LOXIMVI
# [6] = tested on: MEL-HO
# [7] = tested on: MZ2-MEL
# [8] = tested on: MeWo
# [9] = tested on: RPMI7951
# [10] = tested on: RVH-421
# [11] = tested on: SkMel2
# [12] = tested on: SkMel30
# [13] = tested on: SkMel5
# [14] = tested on: UACC257
# [15] = tested on: UACC62
# [16] = tested on: WM115
# [17] = tested on: WM1716
# [18] = tested on: WM1745
# [19] = tested on: WM3526
# [20] = tested on: SkMel28
# 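Also: cells treated in 1,536-well plates, then fixed and DAPI-stained, with nuclei counted from automated high-throughput microscope images.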
Compound,cell count [1] [%],cell count [2] [%],cell count [3] [%],cell count [4] [%],cell count [5] [%],cell count [6] [%],cell count [7] [%],cell count [8] [%],cell count [9] [%],cell count [10] [%],cell count [11] [%],cell count [12] [%],cell count [13] [%],cell count [14] [%],cell count [15] [%],cell count [16] [%],cell count [17] [%],cell count [18] [%],cell count [19] [%],cell count [20] [%]
"CCCCCCCCc1ccc(CCC(N)(CO)CO)cc1 [fingolimod] + Clc1ccc(Nc2nnc(Cc3ccncc3)c3ccccc23)cc1 [vatalanib] (first compound 10 µM, partner dose 10 µM)",0.647,1.33,4.59,0.182,6.51,0.339,1.36,8.19,0.8,3.34,0.308,5.78,24.7,51.4,15.1,12.7,8.44,3.74,10.1,–
"CCCCCCCCc1ccc(CCC(N)(CO)CO)cc1 [fingolimod] + COc1cc(N2CCC(N3CCN(C)CC3)CC2)ccc1Nc1ncc(Cl)c(Nc2ccccc2S(=O)(=O)C(C)C)n1 [NVP-TAE684] (first compound 10 µM, partner dose 0.4 µM)",0.766,49.6,24.9,–,34.4,35.9,–,25.8,4.21,63.4,–,11.2,51.3,76.6,29,8.37,47,–,33.6,2.98
"CN(NC(=O)CC(=O)NN(C)C(=S)c1ccccc1)C(=S)c1ccccc1 + N#Cc1c(O)c2c(-c3ccc(-c4ccccc4O)cc3)csc2[nH]c1=O [A769662] (first compound 0.03 µM, partner dose 10 µM)",41.8,57.7,26.9,–,204,75.1,–,19.5,56.6,65.7,56.4,95.5,58.7,94.9,59.2,32.7,85.1,11.1,83.6,5.22
"CCCCCCCCc1ccc(CCC(N)(CO)CO)cc1 [fingolimod] + CCCCCCCCCCCC1=C(O)C(=O)C=C(O)C1=O [Embelin] (first compound 10 µM, partner dose 6 µM)",1.11,61.7,25.4,0.413,61.8,54.5,1.44,54.4,48,43.4,0.208,18.2,60,59.9,17.5,43.5,60.7,–,29.6,–
"CCCCCCCCc1ccc(CCC(N)(CO)CO)cc1 [fingolimod] + CC1(C)NC(=O)N(c2ccc([N+](=O)[O-])c(C(F)(F)F)c2)C1=O [nilutamide] (first compound 10 µM, partner dose 5 µM)",1.05,30.6,9.01,0.165,11.8,4.51,2.01,15.4,0.569,5.5,0.926,11.7,49.5,60.3,22.1,14.4,22.1,5.36,12.9,–
"CC(C)(C)c1cnc(CSc2cnc(NC(=O)C3CCNCC3)s2)o1 + O=S(=O)(c1ccccc1)N(CC(F)(F)F)c1ccc(C(O)(C(F)(F)F)C(F)(F)F)cc1 [T0901317] (first compound 0.05 µM, partner dose 7 µM)",66.6,73,83.1,–,47.5,78.4,–,89,26.6,61,–,82.6,54,79.1,66.5,83.3,75.3,58.9,67.2,46.7
"CCCCCCCCc1ccc(CCC(N)(CO)CO)cc1 [fingolimod] + COc1ccc(-c2ccc3c(N4CCOCC4)nc(N4C[C@@H](C)O[C@@H](C)C4)nc3n2)cc1CO [KU0063794] (first compound 10 µM, partner dose 0.1 µM)",0.123,36.1,5.08,0.221,6.3,2.16,1.08,3.57,3.59,2.43,0.106,11.1,46.5,39.7,15.5,7.53,10.1,–,16.3,–
"CCCCCCCCc1ccc(CCC(N)(CO)CO)cc1 [fingolimod] + CN(c1ncccc1CNc1nc(Nc2ccc3c(c2)CC(=O)N3)ncc1C(F)(F)F)S(C)(=O)=O [PF562271] (first compound 10 µM, partner dose 0.4 µM)",1.76,70.6,18.5,–,15.8,22.1,–,41.2,4.37,22.9,31,11,42.6,78.8,24.2,8.76,50.7,5.46,44.4,1.82
"CCCCCCCCc1ccc(CCC(N)(CO)CO)cc1 [fingolimod] + Cc1cc(N2CCOCC2)cc2[nH]c(-c3c(NC[C@@H](O)c4cccc(Cl)c4)cc[nH]c3=O)nc12 [BMS536924] (first compound 10 µM, partner dose 1 µM)",0.587,57.7,5.28,0.174,5.3,2.88,24.7,14.5,–,1.54,0.0965,12.1,35.2,68.8,18.2,10.9,6.65,1.78,11.8,–
